B1: GBRAP_52_6090 (protein)
chain: MMEELEEMARKIYEALKAGDLEKVTELLKELVEKYSDEEVLETIELTAKLVAEESPEEREKMLDILLEALDRVAEETGKEELMDEAAARVAAIAYESLLK
B2: GBRAP_14_3824 (protein)
chain: MEEIEKVIKEMTKELKALFAEISPEKAEELAAAVEEEAKKALEKIKETGDVEKAIREATERLVKRVKEILKDEPEEVRATAQAAVRIEWAEAEEEIDELL
B3: GBRAP_137_3651 (protein)
chain: MKIVITKSEEDGLGELTILVYDPEKAEEIAEKVLDIAHEVGADAVSIERLEDGHLEITVYGSPEKIDAFLEKFTEWLETELGLKKEESEEDGKKIYTFES
B4: GBRAP_160_4865 (protein)
chain: SEKLEKALKIVEEAEERALEIVEEAPASSRAAFAYSEMGAAILELEEEGLITDELEDELAEIADELEAELKANADASVEEHKKMVEEAFKKAKEKIKEMS
B5: GBRAP_52_6383 (protein)
chain: KVEEAAKLLKEAIKLIVEGGPKEEVEELAKEILEYDEETIEEAAKKVAEEIKKLSPEEAEKYLEATFELADILEELGLPEEVASLIEAEIGKAAYEVEQK
B6: GBRAP_52_5872 (protein)
chain: ALEKAIALLKEAIKAMLAGKEEEAKALMKEIVATFSEETILAAVKAVAEEVQTKSLEEAKAFFETVELLSDEMIAAGKDENIASEMEAIAGAALYKVEQK
B7: GBRAP_160_4037 (protein)
chain: NEKLKKLKKFAEEVFEEAKELVEGTSVEEAAVIIDVAAGEIIMEAVELGIDDDELEDFIDEIGDEAVAYLLAHPDLSEEEIKELIEEAREKVLEKIDEAE
B8: GBRAP_184_5087 (protein)
chain: KTLERLVEAETREELLAKVEEVIAEAAAEKANLTVLVDMPGLDVETALEILDLLGAARAAGAFPEATLGFAEAFTEEEADKIVARADAQGVRVVLALNEE
B9: GBRAP_166_4971 (protein)
chain: MQEELVEEFKKYIDELAEKMKTANHEEKLELLAEAAEKLKELIEKGLSDEDLKELIEYLIKKAKEVGISTSEVYGALTIIADLNEEQIDILEEAIKKVEK
B10: GBRAP_95_7049 (protein)
chain: EDDQLALDSLVEVLETYIDLGDEEKAEEAAREAVELLKELGWDAVPDDISLETAELLLREAAKHFSPEEVEALAAALKAKADTEEDKERIEAVAEEALAA
B11: GBRAP_9_7143 (protein)
chain: MEEMVKKIKEVMDDMFEEVREVVPEEVKPLVDELRKKALAEFDKVVADPNKTKEEIAEEAKKLIDDFAKEVSAKVSPEIAKIVEAIALTAKLEIEEILEE
B12: GBRAP_160_4221 (protein)
chain: SETIERIVKIFRENFEEAVELIEGESLEEQKVILDVAVGEVILEVSSDENVTDEMEEVVEKKAEEAAEELLKLKNASREEKLKLIEEKAKELKKELEKLA
B13: GBRAP_159_3962 (protein)
chain: MEERLEALREELRALGASEAAIERAVEALELSLEGEDKDSVAAHVLHLYFTLGASTEQILALLGFLDPDTARYVANVLADYAAAQGDAAAAAAFRAFAAA
B14: GBRAP_52_6163 (protein)
chain: SRERAEEYADRILAAVRAGDEEELERLLREVAETLSEEEIELMLEIIAERVPELTPEEAERVVDAAIRLEDLGIEAGHNEELLSYQLARVAAAAYDRLQA
B15: GBRAP_125_3077 (protein)
chain: PTEEELADLATVLRALGYSDADVEEAVAIAAASSLKQTLVAIMLAEGAEEAADLIEKLTEAEAAEVLRRVAAALAANPGLSKEEVIALIRREAEEALAAA
B16: GBRAP_52_6276 (protein)
chain: MEEEAKKLAEEFIEVALNGSEEEIREFAKELVENYSQELIAEVLKIVVEMSKELNAEEIERLLEAFLILELELDEAGKDTLPAEDAAAELAKLHEEKLKE
B17: GBRAP_184_5136 (protein)
chain: KTLHKFIEAKTVEEAIEKAKKAFEEAKAAGEKLTLFIDAEGLSVEEIEKLIKEVVKLAKEAGLEDAQIILVVEADEEEADKIIKIADEYGVKVVVALEEE
B18: GBRAP_52_6016 (protein)
chain: MRERLEAFVDEVLALVRAGREEEARARIAELVASLDEEELELLIEVIARRAAEAAPEDQEAVWRLAEMLAEEMERAGVDEALADELEARVAAALYDAEQR
B19: GBRAP_14_3867 (protein)
chain: KEKALEVVNKAIEDMREELIKMFPDKKELIDKVAEEIKKYAEEVFKKKENIEEAMEEIREYALKKVEEAFKDLPPEDRAAALTIVDNEFLEADLEIEELS

Whole data set: some 4,500 sequences, median “median log2 fold change of GCK-ALFA target abundance (FLAG IP / Myc IP barcode read proportion)” near 0.078, cut for the lowest 2% near -0.6. This is one part of the list.

For this test, the target named is GABARAP, O95166. Nature of the test: median log2 fold change of GCK-ALFA target abundance (FLAG IP / Myc IP barcode read proportion) (log2 ratio); each designed protein is fused to an ALFA-tag nanobody in HEK293 cells to bring the named protein to FLAG-tagged glucokinase (GCK); Myc marks an untargeted standard; higher = target protein stabilised (more abundant). The settings on record: target protein: 3xFLAG-MCP-GCK-ALFA reporter; HEK293 landing pad (RPLP). The method, boiled down: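 The readout is target abundance, the per-binder median log2 ratio of FLAG to Myc barcode read proportions. It came from HEK293 landing-pad cells carrying a recombined ALFA-nanobody-fused binder library, induced with 2 μg mL^−1 doxycycline and transfected with a plasmid for a FLAG-tagged target and a Myc-tagged standard. After 48 h, lysates were immunoprecipitated with anti-FLAG and anti-Myc, and circular RNA barcodes were reverse transcribed, amplified and sequenced. Each barcode needed a proportion of at least 10^−7 in both replicates and each binder at least 3 barcodes per replicate, a pseudocount of 10^−6 was added, and the replicates were pooled.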
Chain of GABARAP, O95166 (O95166 whole entry, the tested form may be a part): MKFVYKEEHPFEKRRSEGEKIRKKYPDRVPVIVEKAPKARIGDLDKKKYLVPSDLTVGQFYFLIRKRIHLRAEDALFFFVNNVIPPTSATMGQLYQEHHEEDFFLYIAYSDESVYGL
As for B1, the “median log2 fold change” value is -0.00205.

As for B2, the “median log2 fold change” value was -0.0461. Next, B3: 0.183; B4: 0.0751. Next, B5: -0.164; B6: 0.284; B7: -0.581. B8: the “median log2 fold change” value was -0.0646. Next, B9: -0.0848. The figure for B10 is 0.16. The figure for B11 is 0.254; for B12 it is -0.86. As to B13, the “median log2 fold change” value was determined as 0.154. For the molecule B14, the “median log2 fold change” value was -0.285. Next, B15: 0.135.

B16: the “median log2 fold change” value was 0.0527. On to B17, for which the “median log2 fold change” value amounted to 0.225. For B18, the “median log2 fold change” value is -0.044. Next, B19: 0.184.

For the origin of these results see the supplement of paper PMC12632987.
